Experimental data as given in PubChem BioAssay AID686970 (National Center for Advancing Translational Sciences (NCATS), 2013).
About 6,000 (1.7%) of roughly 360,000 compounds were called active. Inconclusive means that the source gave no clear call. Such entries were picked first, then a sample of the others. Calls come from the whole dose curve; as a rule, active = well fitted cell-killing curve with a large enough effect; inconclusive = small, poorly fitted or top-dose-only effect, or effect the other way; inactive = flat fitted curve, though single readings scatter. Potencies of inconclusive entries are left out as doubtful fits.

Test: qHTS for induction of synthetic lethality in tumor cells producing 2HG: qHTS for the HT-1080-NT fibrosarcoma cell line;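 note: NT is the 2HG producing partner of a matched IDH1 knockdown line; nearly all actives have a fitted effect of over 55% in size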;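 for activity, negative = less viability: 0% = DMSO-treated cells and -100% = media-only wells without cells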
Conditions: HT-1080-NT fibrosarcoma viability, CellTiter-Glo ATP luminescence, 48 h; activity, negative = less viability: at 46.1 µM (top of the series) unless noted
Outline: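 Luminescent CellTiter-Glo readout after 48 hours of compound exposure at 37 degrees C defined viability of HT-1080-NT cells. Activity was normalized to DMSO wells and cell-free media wells; concentration-response curves were fitted and assigned curve classes.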
Potency is the fitted concentration of half-maximal effect; tags give direction and shape of the fitted curve.

Row | SMILES | Potency | activity, negative = less viability
1 | O=C(CSc1nnnn1Cc1ccccc1)NC1CCCCC1 | inactive | –
2 | Cc1cccc(C)c1NC(=O)C(c1cccc2ccccc12)n1c(=O)c(-c2ccco2)nc2ccccc21 (configuration not stated) | inconclusive [cytotoxic, single point] | –
3 | CC(C)COC(=O)Nc1nnc(Cc2ccccc2)s1 | – | inconclusive: -34.8% [cytotoxic]
4 | S=C(NCCc1ccccn1)Nc1cc(Cl)cc(Cl)c1 | inconclusive [cytotoxic, single point] | –
5 | CCN1C(=O)C(O)(C2COC(C)(C)CC2=O)c2cc(Br)ccc21 (configuration not stated) | active: 15.8 µM | –
6 | C/C=C(/C)C(=O)OC1CC(C)(C)C[C@H]2C3=CC[C@@H]4[C@@]5(C)CCC(O[C@@H]6O[C@@H](C(=O)O)[C@@H](O)C(O[C@@H]7OC[C@H](O)[C@@H](O)[C@@H]7O[C@@H]7OC(CO)C(O)[C@@H](O)[C@@H]7O)C6O[C@@H]6OC(CO)C(O)C(O)C6O)[C@@](C)(CO)[C@@H]5CC[C@]4(C)[C@]3(C)CC(O)[C@@]12CO (some centres not stated) | inconclusive [cytotoxic, single point] | –
7 | COc1ccc(CN2C(=NC(=O)COc3ccccc3)SC3CS(=O)(=O)CC32)cc1 (configuration not stated) | inactive | –
8 | NCCCCCCNS(=O)(=O)c1cccc2c(Cl)cccc12 | inconclusive [cytotoxic, partial curve, poor fit] | –
9 | O=C(NCCN1C(=O)S/C(=C\c2cccc(Cl)c2Cl)C1=O)C1=COCCO1 | inconclusive [cytotoxic, single point] | –
10 | COc1ccccc1Nc1nc(-c2sc(NC(=O)CC(C)C)nc2C)cs1 | inconclusive [cytotoxic, single point] | –
11 | COc1cc2c(ccc3cc(OC)c(OC)c(O)c32)cc1O | inconclusive [cytotoxic, single point] | –
12 | O=c1[nH]c(C2CCN(S(=O)(=O)c3cccc([N+](=O)[O-])c3)CC2)nc2c1nnn2Cc1ccccc1 | inconclusive [cytotoxic, single point] | –
13 | COc1ccc(-c2coc3cc(OC(C)=O)ccc3c2=S)cc1 | inconclusive [cytotoxic, single point] | –
14 | CCCCCC(=O)N[C@@H](c1ccccc1)[C@@H](O)C(=O)O[C@H]1C[C@@]2(O)[C@@H](OC(=O)c3ccccc3)C3[C@](C)(C(=O)[C@H](OC(C)=O)C(=C1C)C2(C)C)[C@@H](O)C[C@H]1OC[C@@]31OC(C)=O (some centres not stated) | inconclusive [cytotoxic, full curve] | –
15 | CCc1c(C(=O)NCCc2ccc(OC)c(OC)c2)[nH]c(C)c1C(C)=O | inconclusive [cytotoxic, single point] | –
16 | CCNC(=O)C1(C)CCN(Cc2cccc(Oc3ccccc3)c2)C1 (configuration not stated) | inactive | –
17 | O=c1c2c3c(sc2nc(NCCO)n1CCc1ccccc1)CCCCC3 | inactive | –
18 | COc1ccc(NC(=O)N(C)C[C@H]2Oc3ncc(Br)cc3C(=O)N([C@H](C)CO)C[C@@H]2C)cc1 | inactive | –
19 | CC(=O)c1sc(Nc2ccc(Oc3ccccc3)cc2)nc1C | inconclusive [cytotoxic, single point] | –
20 | CCN(CC)S(=O)(=O)c1ccc(NCC2COc3ccccc3O2)c([N+](=O)[O-])c1 (configuration not stated) | inactive | –
21 | C[C@]12CC[C@@H]3c4ccc(O)cc4CC[C@H]3[C@@H]1CC[C@@H]2O | inconclusive [cytotoxic, single point] | –

Row | SMILES | Potency | activity, negative = less viability
22 | Fc1ccc(C2c3cccn3CCN2C(=S)Nc2cccc(F)c2)cc1 (configuration not stated) | inconclusive [cytotoxic, single point] | –
23 | CCOC(=O)C1=C(CC)Nc2ccccc2N=C1NC(=O)c1ccc(OC)c(S(=O)(=O)N2CCCCC2C)c1 (configuration not stated) | inactive | –
24 | O=S(=O)(Nc1cccc(CCc2ccccn2)c1)c1ccc(Cl)cc1 | inconclusive [cytotoxic, single point] | –
25 | Clc1ccc2c(c1)C(C1=NCCN1)c1ccccc1CS2 (configuration not stated) | active: 1.16 µM | –
26 | Cc1nn(C)c(C(=O)NC(=S)Nc2ccc([N+](=O)[O-])cc2)c1Cl | inconclusive [cytotoxic, partial curve] | –
27 | O=Cc1[nH]c2ccccc2c1N(C(=O)CCl)c1ccc([N+](=O)[O-])cc1 | inconclusive [cytotoxic, single point] | –
28 | COc1cc(/C=N/Nc2nc3ccccc3s2)ccc1O | active: 20.6 µM | –
29 | O=C(CCNC(=O)c1ccccc1Cl)NCC(c1ccco1)N1CCCC1 (configuration not stated) | inactive | –
30 | Cc1nc2ccccc2c(=O)n1/N=C/c1ccc(C(C)C)cc1 | – | inconclusive: 31.1%
31 | C=CCn1cc(C(=O)NCc2ccco2)c(=O)c2cc(S(=O)(=O)N3CCCCCC3)ccc21 | inconclusive [cytotoxic, partial curve] | –
32 | Cc1cccc(-n2ncc3c(N4CCCc5ccccc54)ncnc32)c1 | inconclusive [cytotoxic, single point] | –
33 | C=C(C)CSc1[nH]c(=O)cc(C)c1C#N | inactive | –
34 | COc1ccc(NCc2nc3ccccc3n2CCOc2ccc(C)cc2)cc1 | active: 18.4 µM | –
35 | Cc1cc2nc(-c3ccccc3)c(Cc3cccc(Cl)c3)n2c(C)c1Br | inactive | –
36 | CCCOc1ccc(C2C(C(=O)c3cc4ccccc4o3)=C(O)C(=O)N2c2cc(C)on2)cc1OC (configuration not stated) | inconclusive [cytotoxic, single point] | –
37 | CCOc1ccc(C(=O)Nc2cccc3cccnc23)cc1 | inconclusive [cytotoxic, single point] | –
38 | CC(C)n1cc(NC(=O)c2cc(-c3ccccc3)on2)cn1 | active: 16.4 µM | –
39 | CN(C)c1nc2ccccc2c(N)c1-c1ccccc1 | inconclusive [cytotoxic, single point] | –
40 | CC1CCC2(CC1)NC(=O)N(CC(=O)c1cn(CCC#N)c3ccccc13)C2=O (configuration not stated) | inactive | –
41 | COc1ccc(S(=O)(=O)N(C(=O)c2ccco2)c2cc3sc(=O)oc3c3ccccc23)cc1 | inconclusive [cytotoxic, single point] | –
42 | COc1ccc(CC(NC(C)=O)C(=O)NC2CCN(C(=O)c3cccc(Cl)c3)CC2)cc1OC (configuration not stated) | inconclusive [rising, single point] | –
